Measurements: the supplement of paper PMC4967469
By IC50 is meant the dose at which the fit gives 50% viability; a limit (>, <) means that the fit lies beyond the doses tested. AUC sums up the same curve from the lowest dose to the 256-fold higher top dose; values near 1 show little effect. The top dose, if marked as inferred, was derived from the fitted curves, not read from the paper.

Legend:
Experiment in all cases: Viability of human cancer cell lines after 72 h of drug (GDSC screen)
CAY10603 = compound: CC(C)(C)OC(=O)Nc1ccc(-c2cc(C(=O)NCCCCCCC(=O)NO)no2)cc1 [CAY10603]; details: top dose 20 µM; top dose inferred
Description: (§1)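 Human cancer cell lines in 384-well plates, medium with 10% serum, drug for 72 h over a 256-fold dose range (nine 2-fold or five 4-fold steps up to the top dose). Adherent lines were fixed and stained with the nucleic acid dye Syto60, suspension lines read with resazurin; signal relative to control wells, capped at 0 and 100%. One two-parameter sigmoid per drug and line, fitted in a mixed model over all curves with the slope shared within a line.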

XMD8-92 = compound: CCOc1cc(N2CCC(O)CC2)ccc1Nc1ncc2c(n1)N(C)c1ccccc1C(=O)N2C [XMD8-92]; details: top dose 10 µM; top dose inferred
Description: as §1

CH5424802 = compound: CCc1cc2c(cc1N1CCC(N3CCOCC3)CC1)C(C)(C)c1[nH]c3cc(C#N)ccc3c1C2=O [CH5424802]; details: top dose 5.12 µM; top dose inferred
Description: as §1

ACHP (KIN001-260) = compound: N#Cc1c(C2CCNCC2)cc(-c2c(O)cccc2OCC2CC2)nc1N [ACHP (KIN001-260)]; details: top dose 20 µM; top dose inferred
Description: as §1

Cell Line | AUC (CAY10603) | IC50 (CAY10603) [µM] | AUC (XMD8-92) | IC50 (XMD8-92) [µM] | AUC (CH5424802) | IC50 (CH5424802) [µM] | AUC (ACHP (KIN001-260)) | IC50 (ACHP (KIN001-260)) [µM]
ALL-SIL (T-cell leukaemia, suspension) | 0.222 | 0.225 | 0.913 | > 10 | 0.961 | > 5.12 | 0.796 | 7.93
AMO-1 (haematopoietic neoplasm, suspension) | 0.302 | 0.381 | 0.841 | 5.55 | 0.983 | > 5.12 | 0.809 | 8.69
ASH-3 (thyroid, adherent) | 0.92 | > 20 | 0.89 | > 10 | 0.986 | > 5.12 | 0.988 | > 20
ATN-1 (T-cell lymphoblastic leukaemia, suspension) | 0.311 | 0.384 | 0.936 | > 10 | 0.837 | 3.1 | 0.882 | 18.8
AU565 (breast, adherent) | 0.551 | 1.75 | 0.929 | > 10 | 0.977 | > 5.12 | 0.959 | > 20
AsPC-1 (pancreas, adherent) | 0.671 | 5.29 | 0.865 | > 10 | 0.95 | > 5.12 | 0.951 | > 20
BB65-RCC (kidney, adherent) | 0.52 | 1.43 | 0.896 | > 10 | 0.983 | > 5.12 | 0.955 | > 20
BE-13 (lymphoblastic leukaemia, suspension) | 0.141 | 0.105 | 0.881 | 9.27 | 0.971 | > 5.12 | 0.847 | 13.3
BHT-101 (thyroid, adherent) | 0.433 | 0.813 | 0.786 | 4.45 | 0.971 | > 5.12 | 0.976 | > 20
BICR10 (head and neck, adherent) | 0.797 | 11.2 | 0.905 | > 10 | 0.982 | > 5.12 | 0.985 | > 20
BL-41 (Burkitt lymphoma, suspension) | 0.227 | 0.26 | 0.882 | 6.38 | 0.939 | > 5.12 | 0.892 | 13.8
BT-20 (breast, adherent) | 0.745 | 7.6 | 0.966 | > 10 | 0.981 | > 5.12 | 0.981 | > 20
BT-474 (breast, adherent) | 0.54 | 1.62 | 0.764 | 4.04 | 0.986 | > 5.12 | 0.937 | > 20
BT-483 (breast, adherent) | 0.825 | > 20 | 0.975 | > 10 | 0.961 | > 5.12 | 0.977 | > 20
Becker (glioma, adherent) | 0.629 | 2.96 | 0.919 | > 10 | 0.978 | > 5.12 | 0.959 | > 20
C2BBe1 (large intestine, adherent) | 0.616 | 2.73 | 0.911 | > 10 | 0.977 | > 5.12 | 0.978 | > 20
C32 (melanoma, adherent) | 0.88 | > 20 | 0.963 | > 10 | 0.986 | > 5.12 | 0.987 | > 20
C-4-I (cervix, adherent) | 0.969 | > 20 | 0.937 | > 10 | 0.982 | > 5.12 | 0.986 | > 20
CADO-ES1 (Ewing sarcoma, suspension) | 0.344 | 0.456 | 0.96 | > 10 | 0.982 | > 5.12 | 0.916 | > 20
CAL-12T (non-small cell lung carcinoma, adherent) | 0.559 | 1.84 | 0.886 | > 10 | 0.933 | > 5.12 | 0.917 | > 20
CAL-27 (head and neck, adherent) | 0.495 | 1.21 | 0.831 | 6.5 | 0.984 | > 5.12 | 0.979 | > 20
CAL-33 (head and neck, adherent) | 0.649 | 3.24 | 0.911 | > 10 | 0.984 | > 5.12 | 0.98 | > 20
CAL-62 (thyroid, adherent) | 0.687 | 4.05 | 0.765 | 3.5 | 0.988 | > 5.12 | 0.988 | > 20
CAL-78 (chondrosarcoma, adherent) | 0.867 | > 20 | 0.921 | > 10 | 0.986 | > 5.12 | 0.98 | > 20
CAPAN-1 (pancreas, adherent) | 0.773 | 8.67 | 0.942 | > 10 | 0.985 | > 5.12 | 0.987 | > 20
CAS-1 (glioma, adherent) | 0.658 | 4.05 | 0.899 | > 10 | 0.946 | > 5.12 | 0.973 | > 20
CCK-81 (large intestine, adherent) | 0.487 | 1.16 | 0.895 | > 10 | 0.96 | > 5.12 | 0.953 | > 20
CGTH-W-1 (thyroid, adherent) | 0.675 | 3.84 | 0.89 | > 10 | 0.986 | > 5.12 | 0.982 | > 20
CHP-212 (neuroblastoma, adherent) | 0.264 | 0.283 | 0.864 | 7.63 | 0.935 | > 5.12 | 0.988 | > 20
CHSA0011 (chondrosarcoma, adherent) | 0.836 | > 20 | 0.871 | > 10 | 0.97 | > 5.12 | 0.964 | > 20
